In article PMC12136788:
This is one part of the list.

T1: UNK ZnF1-3 (human, UniProt Q9C0B0 31-174)
T1 sequence: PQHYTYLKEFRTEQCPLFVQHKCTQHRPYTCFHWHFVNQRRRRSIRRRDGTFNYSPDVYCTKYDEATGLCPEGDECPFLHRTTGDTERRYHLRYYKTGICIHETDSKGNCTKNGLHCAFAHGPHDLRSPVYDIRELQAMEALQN

B1: chr7:140404665:140404666:+_ENSG00000090266_ENST00000247866|hu_hu|hu_hu_hu_mus_False|88_108 (ssRNA)
RNA: GGGAGUUCUACAGUCCGACGAUCUGCGUACAGAGUGCCAGAGAGUUUACACCUUCAGUCCUCGUCAUCAGGAGGGAUUCCCAGUUCUUCAUCUGUCCACUGUGAAGGAUCUGGAUAUGAAAAGUGACCCAGCACAGCAUCCGACAACAGAGGAUUGAGCAUCA
B2: chr11:72025555:72025556:-_ENSMUSG00000020801_ENSMUST00000021157|mus_mus|FALSE|FALSE (ssRNA)
RNA: GGGAGUUCUACAGUCCGACGAUCCGCACACUGCGCAUUCACCAGCUCCUUGCGAAAGUGCUCAUACUGGAGCAGCUCUAACAUAUGUAAGCACUGAGGGUACUUUAGAUAUUUGGCAUAUUCUGGUUCUUUCCAGUAAAGCAACAACAGAGGAUUGAGCAUCA
B3: 109357056_109363205_1080_CDS_ENSG00000153201_ENST00000283195|human|control|control (ssRNA)
RNA: GGGAGUUCUACAGUCCGACGAUCAGCUUCACCUUUUAUUAAUUUAAUCUUUGGUCUUGGAACCUGAAAUGCUAUGAGAUAGCACAAUGCAGCCAGCUCAGAAAGAGCUCGCCAUUGAACAUUACUACUAUGCUGACCCAUCUUCAACAGAGGAUUGAGCAUCA
B4: 108357121_108366956_3200_CDS_ENSG00000108018_ENST00000263054|human|control|control (ssRNA)
RNA: GGGAGUUCUACAGUCCGACGAUCAGCAGCAUGGACAAGGACUCGGACUCCUGGCUUCAGCUCGAAGUGUACUGAGUUUUGGUUGAGCGUGUGGAUCAGCAAUUCUGAUAUCUGCUCCAGGUCAUCAGUUGACCUUUUGUUUUCCAACAGAGGAUUGAGCAUCA
B5: chr2:232320318:232320319:-_ENSG00000115053_ENST00000322723|hu_hu|hu_hu_hu_mus_True|68_108 (ssRNA)
RNA: GGGAGUUCUACAGUCCGACGAUCACUGUUGAAGUCUACAAAACCAAACCCUUUGGAAGAACCAGUUUCCCGGUCAGUGACUAUUCUUGCACGAACAGAGCCCUCAAAUGAUUCUUUUAAGGUCUCUUCAGUGGUAUCCUCAGACAACAGAGGAUUGAGCAUCA
B6: 76978581_76983199_1410_CDS_ENSMUSG00000036435_ENSMUST00000113493|mouse|control|control (ssRNA)
RNA: GGGAGUUCUACAGUCCGACGAUCCAUCUUCAUCUUUGCAACUUCAAAGAAAUCUUUGAUUUCUCUUUCAUAUAGUCGGGAUAAAUAAUCCAUGUAAUUCUUUGUUAGUCCCUCGUAUUUUCCAUAGUCUGUACUCUUUAGCCACAACAGAGGAUUGAGCAUCA
B7: chr14:66974463:66974464:+_ENSMUSG00000022044_ENSMUST00000074523|mus_hu|mus_mus_mus_hu_False|38_88 (ssRNA)
RNA: GGGAGUUCUACAGUCCGACGAUCUUGUAGGACGACUUAUUCAGGGGAUCAGACAAGAAGCAGGAGCAGAACAAGGACACCAGCGGGAGCUCCUUCAUCUUCUCCUUGUAGGCAGCAAGGGUCAUGUUUCUGGGAUCUGGUGGCCAACAGAGGAUUGAGCAUCA
B8: chr1:39494447:39494448:+_ENSG00000168653_ENST00000372967|hu_mus|hu_hu_hu_mus_False|1_98 (ssRNA)
RNA: GGGAGUUCUACAGUCCGACGAUCGCACCGAGCGGCGAUCUUGUAGGGCUGUUCUGCGCUUAGGAACAUAAAGUGCCGGUCCAGGCUGAUGCCCAGCUUUUUCUGUAUGUCAAGGAAAGGCAUGGCUCUGCAGUGCCCCCUUGACAACAGAGGAUUGAGCAUCA
B9: chr1:135503150:135503151:-_ENSMUSG00000090553_ENSMUST00000166915|mus_mus|motif|central (ssRNA)
RNA: GGGAGUUCUACAGUCCGACGAUCUUCUGCAUCAUCUAAUACGAGGUUCAUGUACUCAUCAAAGCCAAUAAUACAACCUUCGGUCCGCAUAUUCACUUGUUCAUACAGCCACACCUGAAUUCGAGAUCUAUUUUGCAAGUAUCUCAACAGAGGAUUGAGCAUCA
B10: chr2:48026839:48026840:+_ENSG00000116062_ENST00000540021|hu_hu|hu_hu_hu_mus_False|48_68 (ssRNA)
RNA: GGGAGUUCUACAGUCCGACGAUCAUAGUGAGCCACUAGCGUCCUAAAUCUGGAACAGUGGCGGUCAUCUGAAAACUGGCCGAUGAAAAACUUUCCCAGUGAAGUGUCCACAAAGCAAACACCAUACACACGAGUGUGACCAGACAACAGAGGAUUGAGCAUCA
B11: 107984585_107984705_1084_3pUTR_ENSMUSG00000029461_ENSMUST00000049053|mouse|control|control (ssRNA)
RNA: GGGAGUUCUACAGUCCGACGAUCUAGAAAAAGCAGCUUUUACAAAAACCAAAAAUAAAAAUCAAAACCAUUAAAGAUGCAUAAAGUGACCCUUGCACUUCCGUUGUCUCUUCUUGCAAUAGAGGUGGUGCUGCUAGGAGACUGCAACAGAGGAUUGAGCAUCA
B12: chr14:102551731:102551732:-_ENSG00000080824_ENST00000216281|hu_mus|FALSE|FALSE (ssRNA)
RNA: GGGAGUUCUACAGUCCGACGAUCCACGAUCUCCUUUAUUCUCCUUUCCUCCAAAUACUCUGUUUGGUCUUCUUUCAGAUGCAAGAUAACCUUUGUUCCACGACCCAUUGGUUCACCUGUGUCAGUCCUCACUGUGAAGGAUCCCAACAGAGGAUUGAGCAUCA
B13: 213125139_213139073_470_CDS_ENSG00000143494_ENST00000366968|human|control|control (ssRNA)
RNA: GGGAGUUCUACAGUCCGACGAUCGUGAUUAUAUUGUAGGGUCUUCAUGUAAUUCUGGAUCGCCUGGAGCCAGUCUGGGAUCGUCAUCGACAGCCUGUAGUUUGGGACCUGGGGUAUUGAAGGCUUUGCCAAGAAGGCGGCGUUCAACAGAGGAUUGAGCAUCA
B14: chr2:230653580:230653581:-_ENSG00000153827_ENST00000389045|hu_hu|motif|central (ssRNA)
RNA: GGGAGUUCUACAGUCCGACGAUCAGUAAGCCAUGUUGGGAUGUUUCCUGUCAUGAUUACUAAAGGAUCUUGAAGUUGCCGGUUUGCUUUUGCUGUUAACUUACUGUUAAUAAAUUCACUAGUUGGAAUAAUUUCCUUGCACAUCAACAGAGGAUUGAGCAUCA
B15: chr5:132203191:132203192:+_ENSG00000164405_ENST00000378667|hu_mus|FALSE|FALSE (ssRNA)
RNA: GGGAGUUCUACAGUCCGACGAUCAUUCUUCCUUUUCGACUGCUCAAACUCCUGGUUGCCCCAUGUGUAGAUCAGGUAGACCACUACAAACGGCGGCGCCACGCGCAGGAUGCGCUCGCGAGUGCGGCGCAGCACGUUGGGGAUCAACAGAGGAUUGAGCAUCA
B16: 106035800_106035920_799_3pUTR_ENSMUSG00000054720_ENSMUST00000067924|mouse|control|control (ssRNA)
RNA: GGGAGUUCUACAGUCCGACGAUCCUCCGGACACUUCGGAGAGAGCCCGUGUGGUCCACGGGGAGUCAAAGCACUUCCCCAGGAUGGAGAUGAAAUGUUCUAUUUUGGAACUGGAUCCGGGGAAUUUGAACCAGAAGUUGCUACCAACAGAGGAUUGAGCAUCA
B17: chr7:149068622:149068623:-_ENSMUSG00000025139_ENSMUST00000001950|mus_hu|mus_mus_mus_hu_False|18_58 (ssRNA)
RNA: GGGAGUUCUACAGUCCGACGAUCGUGAGGCCUCUGAGUGUGGCUUGUGGUCUGUCCUGGGUUAGAGUUGUUAAUAUCACUAAGUGGACCAUCUAGAACGUUCCAGUCCCGCCUGACCAUCCACCCUCCAAUGGAGAAGAAAUCCAACAGAGGAUUGAGCAUCA
B18: chr1:60041781:60041782:+_ENSMUSG00000041040_ENSMUST00000036540|mus_hu|mus_mus_mus_hu_False|48_68 (ssRNA)
RNA: GGGAGUUCUACAGUCCGACGAUCAAGUUUACAAUAGUAAAGUAAAUGCAGUAGUGGCAAAUUUUCUUUACUUUAGUUUCACAAAAGAAAACCUCAGUAACCCAGUCCUAGUCUUGGACAUAGUGAAAGCUAUAAAUUCUGACUCAACAGAGGAUUGAGCAUCA
B19: chr7:135839355:135839356:+_ENSMUSG00000042105_ENSMUST00000151237|mus_mus|FALSE|FALSE (ssRNA)
RNA: GGGAGUUCUACAGUCCGACGAUCAUGACGGGCAAGCCCAUACUUAAGAAUUUGAGAGAGAGAGAAAAAAAAAUGUAUAUACGGGAGAGAGUGGGGUCAAAGGAAAAAUACAGUUUUACCAUUGUUAAUUCUCAACUUCAGAGACAACAGAGGAUUGAGCAUCA
B20: 33466408_33530590_1544_3pUTR_ENSMUSG00000028274_ENSMUST00000108153|mouse|control|control (ssRNA)
RNA: GGGAGUUCUACAGUCCGACGAUCUUCUGUGGAAGCAACCCUUCUCCUCCCAUUCUUGUUAUCUUAAGUCGAAAAUCCACAGAGUUUAGACUGGGAGGUUUCCAUUUCAAAAUGUCAUCACAUCGACCAGGCUUGUAUUUUCCACAACAGAGGAUUGAGCAUCA
B21: chr12:28026325:28026326:-_ENSMUSG00000063632_ENSMUST00000079063|mus_hu|FALSE|FALSE (ssRNA)
RNA: GGGAGUUCUACAGUCCGACGAUCCUGCUGCUCGCUGGCGCUGUGCGCGCUUUGAGAGAAAUUCAAGCUCAGGUCGAACAUCAGGUCGUCGGCGUCCUCGCCGCUGCUGCCGCUGCUGCUGCCGCUGCUGCUGGACGAGGAGGUCAACAGAGGAUUGAGCAUCA
B22: chr4:82150701:82150702:-_ENSMUSG00000008575_ENSMUST00000064770|mus_mus|FALSE|FALSE (ssRNA)
RNA: GGGAGUUCUACAGUCCGACGAUCUAAAACGCACUUUCCCGGAGAUGCCCAAGAAAAUCUUCCAGAAGCAAGGAUUUCAUCUAUUCAUUUUACAGUCAUCUGAGCCCAGCGAUGCGAUCAAUCAGGACGGGGCACUGCGCCGGUCAACAGAGGAUUGAGCAUCA

Target: T1, UNK ZnF1-3
Test: nsRBNS (natural sequence RNA bind-n-seq); RBNS binding buffer (assumed for nsRBNS): 25 mM Tris pH 7.5, 150 mM KCl, 3 mM MgCl2, 0.01% Triton X-100, 500 ug/ml BSA, 20 U/ml SUPERase-In, 4 C; UNK is unkempt and MSI1 is Musashi-1; names of the RNAs are library labels; protein concentration not given here; high values mean tight binding

Question: With B1 as the binder, how does the binding signal read?
Answer: The binding signal was 1.08 enrichment R.

Question: With B2 as the binder, how does the binding signal read?
Answer: The binding signal was 0.747 enrichment R.

Question: With B3 as the binder, how does the binding signal read?
Answer: The binding signal was 1.9 enrichment R.

Question: For B4, which binding signal is on record?
Answer: The binding signal was 0.847 enrichment R.

Question: For B5, which binding signal is on record?
Answer: The binding signal was 0.504 enrichment R.

Question: With B6 as the binder, how does the binding signal read?
Answer: Its binding signal is 0.343 enrichment R.

Question: With B7 as the binder, how does the binding signal read?
Answer: The binding signal was 1.69 enrichment R.

Question: Which binding signal does the source give for B8 here?
Answer: Its binding signal is 0.692 enrichment R.

Question: Which binding signal does the source give for B9 here?
Answer: The binding signal was 1.03 enrichment R.

Question: How did the binding signal turn out when B10 was run?
Answer: The binding signal was 1.12 enrichment R.

Question: For B11, which binding signal is on record?
Answer: Its binding signal is 1.58 enrichment R.

Question: Which binding signal does the source give for B12 here?
Answer: The binding signal was 0.523 enrichment R.

Question: B13 was tested. Which binding signal did it give?
Answer: The binding signal was 0.943 enrichment R.

Question: B14 was tested. Which binding signal did it give?
Answer: The binding signal was 0.632 enrichment R.

Question: How did the binding signal turn out when B15 was run?
Answer: The binding signal was 0.735 enrichment R.

Question: For B16, which binding signal is on record?
Answer: Its binding signal is 0.74 enrichment R.

Question: For B17, which binding signal is on record?
Answer: Its binding signal is 0.94 enrichment R.

Question: For B18, which binding signal is on record?
Answer: The binding signal was 0.652 enrichment R.

Question: For B19, which binding signal is on record?
Answer: The binding signal was 2.76 enrichment R.

Question: With B20 as the binder, how does the binding signal read?
Answer: Its binding signal is 0.827 enrichment R.

Question: With B21 as the binder, how does the binding signal read?
Answer: Its binding signal is 0.753 enrichment R.

Question: B22 was tested. Which binding signal did it give?
Answer: The binding signal was 1.56 enrichment R.
